Assay results from patent publication US20190117713A1, “ANTIBACTERIAL COMPOSITION” (FermBiotics Holding ApS, priority 2016, published 2019).

Test system: streptococcus infection
Assay: Treatment of a patient suffering from a streptococcus infection (case report)
Conditions: 800 mg, 1 pill 3 times a day for 10 days

Question: phenoxymethylpenicillinsodium was tested. Which “Effect on streptococcus infection after a first treatment” value did it give?
Answer: no effect
